Assay results published in PubChem BioAssay AID2546 (National Center for Advancing Translational Sciences (NCATS), 2010).
In all, about 310,000 compounds went through this assay and about 11,000 (3.5%) were called active. The shares of active, inactive and inconclusive entries below differ from those in the screen. Calls follow the shape of the dose curve; as a rule, active = well fitted inhibition curve with a large enough effect; inconclusive = small, poorly fitted or top-dose-only effect, or effect the other way; inactive = flat fitted curve, though single readings scatter. No potency is given beside an inconclusive call; the fits are too rough.

Test: VP16 counterscreen qHTS for inhibitors of ROR gamma transcriptional activity;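 also: Gal4-VP16 expression switched on by copper sulfate through the metallothionein promoter; nearly all actives have a fitted effect of over 50% in size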
Details: Drosophila S2 Gal4-VP16 UAS-luciferase, luminescence, 20 h; activity, negative = inhibition: at 53.6 µM (top of the series)
% is scaled to controls: 0 for no effect and ±100 for the full control effect; potency is read from the fitted curve at half-maximal effect; tags tell the direction and shape of the fitted curve.

Row | Compound | Potency | activity, negative = inhibition
1 | Cc1cc(C)c(S(=O)(=O)/N=C2/C=C(SCC(=O)O)C(=O)c3ccccc32)cc1C | inconclusive [inhibitor, single point] | 
2 | COC(=O)c1oc2ccccc2c1NC(=O)/C=C/C(=O)O | inactive | 
3 | CCN(Cc1ccccc1)C(=O)c1nn(-c2ccc(OC)cc2)c(=O)c2c1c1ccccc1n2C | inconclusive [inhibitor, single point] | 
4 | O=C(N/N=C/c1cn(-c2cccs2)nc1-c1ccccc1)c1ccccc1Br | active: 6.31 µM | 
5 | CCOC(=O)N1CCN(CC(O)COc2ccccc2C(C)C)CC1 (centres undefined) | inactive | 
6 | COc1cccc(CN2CCCC(CNC(=O)c3ccc(F)cc3)C2)c1OC (centres undefined) | inactive | 
7 | CCC1(C)Cc2ccccc2C(=S)N1 (centres undefined) | inconclusive [inhibitor, single point] | 
8 | COc1ccc(OC(=O)Cc2cccc3ccccc23)cc1 | inactive | 
9 | O=C(O)CCCCCN1C(=O)/C(=C/c2ccncc2)SC1=S | active: 10 µM | 
10 | CC1(C)Oc2ccc3ccc(=O)oc3c2-c2cnoc21 | inconclusive [inhibitor, single point] | 
11 | Cc1ccc(NC(=O)NC2CCCCCCC2)cc1C | inconclusive [activator, single point] | 
12 | O=[N+]([O-])c1ccc(NCCCNS(=O)(=O)c2ccc(Cl)cc2)c(Cl)c1 | inconclusive [inhibitor, single point] | 
13 | NC(=O)c1ccc(NC(=O)COC(=O)c2c3c(nc4ccccc24)/C(=C\c2cccs2)CCC3)cc1 | active: 5.01 µM | 
14 | CN(C)CCCN(C(=O)c1ccc(S(=O)(=O)N(C)C2CCCCC2)cc1)c1nc2ccc(F)cc2s1 | inconclusive [inhibitor, partial curve] | 
15 | CCSS(=O)(=O)c1cccc2cccnc12 | inconclusive [inhibitor, single point] | 
16 | O=C(CNC(=O)c1cccc(Cl)c1)N/N=C/C=C/c1ccccc1 | inconclusive [activator, single point] | 
17 | CC(C)(C)c1ccc(C(=O)N/C(=C\c2cccs2)C(=O)N2CCOCC2)cc1 | inactive | 
18 | CCNC(=O)c1ccccc1SCc1ccccc1 | inactive | 
19 | Cn1c(=O)c(=O)n(C)c2cc(S(=O)(=O)NCCOc3ccccc3Cl)ccc21 | inactive | 
20 | Cc1cc(-n2c(C)cc(C(=O)CSc3ncnc4ccccc34)c2C)no1 | active: 5.01 µM | 
21 | CC(=O)N1C(=O)c2cccc3cccc(c23)C(=O)N1C(C)=O | inactive | 
22 | O=C(Nc1ccncc1)c1ccc(F)cc1 | inconclusive [inhibitor, partial curve] | 
23 | CCOC(=O)c1c(C)[nH]c(C(=O)COC(=O)c2oc3ccc(OC)cc3c2C)c1C | inactive | 
24 | COc1c([N+](=O)[O-])c(=O)oc2ccccc12 | inconclusive [activator, single point] | 
25 | CCOC(=O)c1ccc(N=c2sc(C(=O)OC)cc(=O)n2Cc2ccco2)cc1 | active: 8.91 µM | 
26 | Cc1noc2ncnc(Sc3ccc(Cl)cc3)c12 | active: 6.31 µM | 
27 | C(=N\Nc1ncnc2ccccc12)/c1ccccc1 | active: 1 µM | 

Row | Compound | Potency | activity, negative = inhibition
28 | O=C(CCN1CCOCC1)Nc1cc(C(=O)Nc2ccc(Cl)cc2)ccc1N1CC2CC(C1)c1cccc(=O)n1C2 (centres undefined) | inactive | 
29 | Cc1ccc(-c2n[nH]c(=S)n2Cc2ccccc2)cc1 | active: 6.31 µM | 
30 | O=C(N=C1c2ccccc2CN1c1ccc(F)c(F)c1)c1cccnc1 | inactive | 
31 | COCC(C)n1c(SCc2nc3ccccc3c(=O)[nH]2)nc2ccccc2c1=O (centres undefined) | inactive | 
32 | CC(C)CCNC(=O)c1ccc(C2SCC(=O)N2Cc2ccco2)cc1 (centres undefined) | inactive | 
33 | CN1C/C(=C/c2cccnc2)C(=O)/C(=C/c2cccnc2)C1 | active: 2.82 µM | 
34 | O=C(Nc1ccccc1N1CCCC1)c1ccc([N+](=O)[O-])o1 | inconclusive [inhibitor, partial curve] | 
35 | COc1cc(NC(=O)c2cccc3c2C(=O)N(Cc2cccnc2)C3)cc(OC)c1OC | inactive | 
36 | COC(=O)c1ccc(Oc2c(C(F)(F)F)oc3c(CN4CCN(C)CC4)c(O)ccc3c2=O)cc1 | inactive | 
37 | CCc1ccc(-n2c(SCc3cc(=O)n4cc(Br)ccc4n3)nc3[nH]ncc3c2=O)cc1 | inconclusive [inhibitor, single point] | 
38 | CCOc1cc(N2CCOCC2)c(OCC)cc1NC(=O)c1cccc(N(C)C)c1 | inactive | 
39 | Cn1c(C2CCCN2C(=O)OC(C)(C)C)n[nH]c1=S (centres undefined) | inactive | 
40 | Cc1cc(C(=O)Nc2ccccc2C(F)(F)F)no1 | inactive | 
41 | O=C(N/N=C/c1ccc2c(c1)OCO2)c1ccc2c(c1)OCCO2 | inconclusive [inhibitor, single point] | 
42 | CCC(=O)Nc1cc(C(C)(C)C)ccc1C(C)=O | inactive | 
43 | O=C(NC(=S)Nc1cccc2cccnc12)c1ccccc1 | active: 6.31 µM | 
44 | O=C(/C=C/c1ccc(N2CCCCC2)c([N+](=O)[O-])c1)c1ccc(O)cc1 | inconclusive [inhibitor, single point] | 
45 | Nc1cc(S(=O)(=O)Nc2ccc(Cl)cc2)ccc1N1CCOCC1 | active: 15.8 µM | 
46 | O=C(Nc1nc(N2C(=O)c3ccccc3C2=O)n(-c2ccccc2)n1)c1ccc(F)cc1 | inconclusive [inhibitor, single point] | 
47 | COc1ccc(NC(=O)Nc2ccc(OC)cc2)cc1 | inconclusive [inhibitor, partial curve] | 
48 | COc1ccc(-n2c(-c3ccc(Cl)cc3)c[n+]3c2CCc2ccccc2-3)cc1 | active: 12.6 µM | 
49 | O=c1c2ccccc2[nH]c(=S)n1Cc1ccccc1 | active: 5.01 µM | 
50 | COc1ccc(/C=N\NS(=O)(=O)c2ccc(C)cc2)cc1COc1ccccc1[N+](=O)[O-] | inactive | 
51 | CC1=NN(c2ccc(Cl)cc2)C(=O)C1C(c1cccc(O)c1)c1c(C)[nH]n(-c2ccc(Cl)cc2)c1=O (centres undefined) | inconclusive [inhibitor, single point] | 
52 | O=C1NC2(CCCCC2)N=C1c1ccc(Br)cc1 | inconclusive [inhibitor, single point] | 
53 | CS(=O)(=O)N(CC(=O)Nc1ccccc1Sc1ccccc1)c1cccc(Br)c1 | inconclusive [inhibitor, single point] | 
54 | O=C(NC(=O)N1CCN(c2cccc(Cl)c2)CC1)c1ccc(Cl)cc1 | inconclusive [inhibitor, single point] | 

Row | Compound | Potency | activity, negative = inhibition
55 | Cc1cccc(NC(=O)Nc2ccc(Oc3c(F)c(F)c(F)c(F)c3F)cc2)c1 | inconclusive [inhibitor, partial curve] | 
56 | CC(C)c1ccccc1NC(=O)CCCC(=O)O | inactive | 
57 | CCOC(=O)c1c(C)oc2ccc(OCC(=O)N(CC)CC)cc12 | inconclusive [inhibitor, single point] | 
58 | Cc1cc(C2=NNC(=NC3CC3)SC2)c(C)n1Cc1ccco1 | inactive | 
59 | Cc1ccc(-n2c(-c3ccncc3)n[nH]c2=S)c(C)c1 | inconclusive [inhibitor, single point] | 
60 | COCC(=O)NCCSc1c(C)[nH]c2ccccc12 | inactive | 
61 | COc1ccc(OCc2nnc3n2N=C(c2ccc(Br)cc2)CS3)cc1 | inactive | 
62 | Cc1ccc(C(=O)c2c(C)oc3c2C(=O)C(=O)c2ccccc2-3)cc1 | active: 3.55 µM | 
63 | CC(C)Oc1ccc(C(=O)Nc2nc3ccccc3[nH]2)cc1 | active: 2.82 µM | 
64 | NNC(=S)NC1CCS(=O)(=O)C1 (centres undefined) | active: 4.47 µM | 
65 | Cc1ccc(S(=O)(=O)N[C@@H]2COC(=O)C/C=C\[C@H](C)COC(=O)N[C@@H](C)C(=O)C/C=C\[C@H]2C)cc1 |  | inactive: 0.472% [at 10 µM]
66 | CN1CCC(=NNC(=O)c2ccc(N(Cc3ccc(Cl)cc3)S(C)(=O)=O)cc2)CC1 | inconclusive [inhibitor, partial curve, poor fit] | 
67 | S=c1nc[nH]c2c1cnn2-c1ccccc1 | active: 3.98 µM | 
68 | O=C1c2cccc3c(N4CCCCC4)ccc(c23)C(=O)N1c1cccc(O)c1 | inconclusive [inhibitor, single point] | 
69 | COc1ccc(CNc2nc(S(=O)(=O)c3ccccc3)c(Cl)s2)cc1OC | inconclusive [inhibitor, single point] | 
70 | CNC(=O)C(=O)Nc1cc2c3c(c1)CCC(=O)N3CCC2 | inconclusive [inhibitor, single point] | 
71 | CCn1nnc(NC(=S)NC(=O)c2ccc(-c3cccc(Cl)c3)o2)n1 | active: 2.82 µM | 
72 | CSc1nc(-c2ccco2)cc(-c2ccccc2)c1C#N | inconclusive [inhibitor, single point] | 
73 | C=CCn1c(SCC(=O)N2CCOCC2)nc2scc(-c3ccco3)c2c1=O | inconclusive [inhibitor, single point] | 
74 | COc1ccc(C(C[N+](=O)[O-])c2c(-c3ccccc3)cc3ccccn23)cc1OC (centres undefined) | inconclusive [inhibitor, single point] | 
75 | O=C(NC(=S)Nc1cc(C(F)(F)F)ccc1N1CCOCC1)c1ccco1 | active: 11.2 µM | 
76 | Cc1ccc2c(C)nc(Nc3nc(CSc4nnc(C)s4)cc(=O)[nH]3)nc2c1 | inconclusive [inhibitor, single point] | 
77 | O=C(Nc1ncc(Cc2ccc(Cl)cc2Cl)s1)c1ccc([N+](=O)[O-])cc1 | active: 3.55 µM | 
78 | O=C(Nc1ccc([N+](=O)[O-])cc1)c1cc(Cl)sc1Cl | inactive | 
79 | CC1CN2C(c3ccc(Cl)cc3)=CSC2=N1 (centres undefined) | inactive | 
